The values that follow come from article PMC4336329 (PLoS ONE, 2015).

The whole screen tested about 310,000 compounds, of which about 14,000 (4.5%) showed an effect of 50% or more. The effect is printed as a negative number. Some of the results follow.
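Also: peak tail current of the secondary pulse compared with the same well before compound.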

human ether-à-go-go-related gene (hERG) potassium channel, sequence (Q12809 whole entry, looked up): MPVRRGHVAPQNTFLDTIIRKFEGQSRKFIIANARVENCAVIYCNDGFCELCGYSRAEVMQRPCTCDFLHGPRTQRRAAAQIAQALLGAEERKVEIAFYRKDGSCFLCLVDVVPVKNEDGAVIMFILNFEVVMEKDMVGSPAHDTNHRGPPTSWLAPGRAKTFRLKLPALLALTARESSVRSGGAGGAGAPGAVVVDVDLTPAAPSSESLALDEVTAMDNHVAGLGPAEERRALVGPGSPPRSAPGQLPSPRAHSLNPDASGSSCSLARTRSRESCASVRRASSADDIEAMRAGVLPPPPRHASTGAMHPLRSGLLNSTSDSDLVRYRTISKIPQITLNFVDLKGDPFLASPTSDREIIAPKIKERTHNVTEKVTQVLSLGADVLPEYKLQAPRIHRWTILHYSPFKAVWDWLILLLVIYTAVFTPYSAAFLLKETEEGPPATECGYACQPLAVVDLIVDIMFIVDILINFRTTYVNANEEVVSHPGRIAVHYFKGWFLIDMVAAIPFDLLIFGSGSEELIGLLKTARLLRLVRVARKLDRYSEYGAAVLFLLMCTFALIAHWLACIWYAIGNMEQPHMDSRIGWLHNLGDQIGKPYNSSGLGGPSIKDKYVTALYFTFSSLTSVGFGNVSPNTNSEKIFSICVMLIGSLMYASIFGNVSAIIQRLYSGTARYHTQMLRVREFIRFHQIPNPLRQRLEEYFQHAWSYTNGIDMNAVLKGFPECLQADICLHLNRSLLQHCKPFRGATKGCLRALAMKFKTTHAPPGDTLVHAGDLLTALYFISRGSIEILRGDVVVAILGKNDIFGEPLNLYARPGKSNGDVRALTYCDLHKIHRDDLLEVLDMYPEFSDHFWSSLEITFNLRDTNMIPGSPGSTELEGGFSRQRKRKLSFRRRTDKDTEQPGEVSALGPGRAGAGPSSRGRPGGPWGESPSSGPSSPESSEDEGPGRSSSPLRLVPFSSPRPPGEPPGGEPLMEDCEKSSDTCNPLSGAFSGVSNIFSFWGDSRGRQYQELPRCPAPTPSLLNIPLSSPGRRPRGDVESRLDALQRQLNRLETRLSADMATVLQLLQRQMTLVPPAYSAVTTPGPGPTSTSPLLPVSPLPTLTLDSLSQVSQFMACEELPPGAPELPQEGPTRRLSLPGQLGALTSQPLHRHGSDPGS

This assay addresses human ether-à-go-go-related gene (hERG) potassium channel (human, UniProt Q12809). Put plainly: primary screen, population patch clamp on CHO cells stably expressing hERG.
Turning to `COC(=O)c1ccccc1NC(=O)NCc1ccccn1`, the “hERG current change (%, negative = inhibition) at 10uM” value was -6.01%.

Take `CC(Sc1nnc(-c2ccncc2)n1-c1ccc(F)cc1)C(=O)NC1CC1` (centres unmarked): the “hERG current change (%, negative = inhibition) at 10uM” value is 4.1%.

On to `CCN(C(=O)CSc1nnc(-c2ccc(F)cc2)c2ccccc12)C1CCS(=O)(=O)C1` (centres unmarked), for which the “hERG current change (%, negative = inhibition) at 10uM” value was -42.3%.

For the compound `O=C1C2ON(c3ccc(Br)cc3)C(c3cccnc3)C2C(=O)N1C1CCCCC1` (centres unmarked), the “hERG current change (%, negative = inhibition) at 10uM” value is -10.7%.

As for `CCOc1cc(N2CCOCC2)c(OCC)cc1NC(=O)COC(=O)c1ccccc1C`, the “hERG current change (%, negative = inhibition) at 10uM” value was -39.4%.

Consider `COc1ccc(CCNC(=S)Nc2ccc(C)cc2C)cc1`, for which the “hERG current change (%, negative = inhibition) at 10uM” value was 2.89%.

For the compound `CC1Cc2ccccc2N1C(=O)c1ccc2nccnc2c1` (centres unmarked), the “hERG current change (%, negative = inhibition) at 10uM” value is recorded as 0.174%.

Regarding `CC1CCc2nc(NC(=O)C3CC3)sc2C1` (centres unmarked), the “hERG current change (%, negative = inhibition) at 10uM” value was -1.82%.

As to `Cc1ccc(NC(=O)CSc2nc(C)c(Cc3ccccc3)c(=O)[nH]2)cc1C`, the “hERG current change (%, negative = inhibition) at 10uM” value was determined as 21.2%.

On to `O=C(c1ccsc1)N1CCCC(N2CCN(c3ccccc3F)CC2)C1` (centres unmarked), for which the “hERG current change (%, negative = inhibition) at 10uM” value is given as -4.2%.

In the case of `CC12CCC(=O)N1C(C(=O)Nc1nc3ccccc3s1)CS2` (centres unmarked), the “hERG current change (%, negative = inhibition) at 10uM” value was found to be 2.45%.

Consider `O=C(CCN1C(=O)c2ccccc2C1=O)Nc1ccc(S(=O)(=O)N2CCOCC2)cc1`, for which the “hERG current change (%, negative = inhibition) at 10uM” value is on record as -7.55%.

Consider `Cc1ccc2nc(SCC(=O)c3ccc4c(c3)OCO4)[nH]c2c1`, for which the “hERG current change (%, negative = inhibition) at 10uM” value is given as -5.49%.

Turning to `CCC(=O)N1N=C(c2ccc(NS(=O)(=O)CC)cc2)CC1c1ccc(C)cc1` (centres unmarked), the “hERG current change (%, negative = inhibition) at 10uM” value is -14.1%.

In the case of `O=C(CSc1nnc(-c2ccncc2)n1Cc1ccco1)Nc1ccccc1Cl`, the “hERG current change (%, negative = inhibition) at 10uM” value was -36.3%.

In the case of `CCOC(=O)CC1COc2ccccc2N1C(=O)c1cccc([N+](=O)[O-])c1` (centres unmarked), the “hERG current change (%, negative = inhibition) at 10uM” value is -30.9%.

Regarding `COCCN(C(=O)CSc1nnc(C)n1-c1ccccc1)c1c(N)n(Cc2ccccc2)c(=O)[nH]c1=O`, the “hERG current change (%, negative = inhibition) at 10uM” value was 10.8%.

In the case of `O=S1(=O)CCN(CCc2c[nH]c3ccccc23)CC1`, the “hERG current change (%, negative = inhibition) at 10uM” value turned out to be 9.02%.

Regarding `Cn1c(N2CCN(S(=O)(=O)c3ccc(Cl)cc3)CC2)nc2ccccc21`, the “hERG current change (%, negative = inhibition) at 10uM” value was -34%.

On to `COc1cccc(-c2noc(-c3ccc4c(c3)OCO4)n2)c1`, for which the “hERG current change (%, negative = inhibition) at 10uM” value is 10.9%.

Turning to `Cc1ccccc1NC(=O)c1c(-c2ccccc2)noc1C`, the “hERG current change (%, negative = inhibition) at 10uM” value is 5.96%.

For the compound `CCN(C1CCS(=O)(=O)C1)S(=O)(=O)c1cccs1` (centres unmarked), the “hERG current change (%, negative = inhibition) at 10uM” value is given as 14.8%.

On to `CCc1ccc(NC(=O)N(CCCOC(C)C)C2CCN(C(C)=O)CC2)cc1`, for which the “hERG current change (%, negative = inhibition) at 10uM” value is reported as -34.1%.

As for `COc1ccccc1C/C(N)=N/OC(=O)c1ccc2c(c1)OCO2`, the “hERG current change (%, negative = inhibition) at 10uM” value amounted to 36.5%.

Take `CC(CCc1ccccc1)NC(=O)c1cccs1` (centres unmarked): the “hERG current change (%, negative = inhibition) at 10uM” value is reported as -39.8%.

As for `CCOC(=O)C(Cc1ccc(NC(C)=O)cc1)N1C(=O)c2ccccc2C1=O` (centres unmarked), the “hERG current change (%, negative = inhibition) at 10uM” value is given as 0.00638%.

Regarding `O=C(NCc1n[nH]c(=S)n1-c1ccc([N+](=O)[O-])cc1)c1ccc(S(=O)(=O)N2CCOCC2)cc1`, the “hERG current change (%, negative = inhibition) at 10uM” value is reported as 11.5%.

As for `COC(=O)c1c(C)[nH]c(C(=O)/C=C/c2cccc(Cl)c2)c1C`, the “hERG current change (%, negative = inhibition) at 10uM” value is 8.69%.

Regarding `Cc1cccc(OCC(=O)NCC(=O)n2nc(C)cc2C)c1`, the “hERG current change (%, negative = inhibition) at 10uM” value came to 10.5%.

Regarding `O=C1CSC(=S)N1c1ccc(F)cc1`, the “hERG current change (%, negative = inhibition) at 10uM” value was 19.2%.

For the compound `Cc1nn2c(nc1=O)SCC(c1ccccc1)=N2`, the “hERG current change (%, negative = inhibition) at 10uM” value came out at 3.63%.

`S=c1[nH]ccn1-c1ccccc1Cl`: the “hERG current change (%, negative = inhibition) at 10uM” value came to 20.3%.

Turning to `CC(=O)Nc1ccc(N2C(=O)CC(Sc3nc(C)cc(C)n3)C2=O)cc1` (centres unmarked), the “hERG current change (%, negative = inhibition) at 10uM” value amounted to 13.3%.

As to `O=C(c1ccc(NS(=O)(=O)c2ccccc2)cc1)N1CCCC1`, the “hERG current change (%, negative = inhibition) at 10uM” value is reported as -8.95%.

With `Cc1ccc(-c2cc(-c3ccccc3Cl)c(C#N)c(N)n2)o1`, the “hERG current change (%, negative = inhibition) at 10uM” value amounted to 3.05%.

For `O=C(COC(=O)C1CCCN1C(=O)c1cccs1)Nc1ccc2c(c1)OCO2` (centres unmarked), the “hERG current change (%, negative = inhibition) at 10uM” value is reported as -11.9%.

For the compound `COc1cc(N)c(Cl)cc1Cl`, the “hERG current change (%, negative = inhibition) at 10uM” value stood at 11.9%.

Take `COc1cccc(CNS(=O)(=O)c2ccc3c(c2)N(C(C)=O)CCS3)c1`: the “hERG current change (%, negative = inhibition) at 10uM” value was -6.28%.

In the case of `CCCOC(=O)CSc1nc(N)c(C#N)c(CC)c1C#N`, the “hERG current change (%, negative = inhibition) at 10uM” value is -8.69%.

As to `COc1cccc(C2=CC(c3ccc(OC)c(OC)c3)NC(=S)N2)c1` (centres unmarked), the “hERG current change (%, negative = inhibition) at 10uM” value was 9.25%.

As for `COc1ccc2nc(C)cc(SCC(=O)OC(C)C)c2c1`, the “hERG current change (%, negative = inhibition) at 10uM” value is given as -34.5%.

Regarding `Cc1c(C(=O)OCCOc2ccccc2)[nH]c2c1C(=O)CCC2`, the “hERG current change (%, negative = inhibition) at 10uM” value was -18.2%.

For the compound `COC(=O)c1ccc(NC(=O)CCN2C(=O)C3CC=CCC3C2=O)cc1` (centres unmarked), the “hERG current change (%, negative = inhibition) at 10uM” value is given as -2.37%.

Turning to `O=C(/C=C/c1ccco1)Nc1ccc(Cl)c(S(=O)(=O)N2CCOCC2)c1`, the “hERG current change (%, negative = inhibition) at 10uM” value is -7.88%.
